In the RNAGym collection of RNA variant scans (doi:10.7554/elife.90254) one finds self-cleavage data, which are given here for 56 variants.

Read counts are not given, so values of variants with three or more changes are uncertain.

B1: LINE1-mini (parent)
chain: GGCAGAGCUCAACACAGCGUGGCAAAGUGGCUGUGGCUAGACUGCC

The data set covers variants of B1. Description: self-cleavage, relative activity (ratio to wild type); higher = more cleavage; in vitro, sequencing; the parent is a self-cleaving ribozyme.
For GGCAGAGCACAACACAGCGUUGCAAAUUGGCUGUGGGUAUACUGCC, the self-cleavage amounted to 0.01. The figure for GGCAGAGCAUAACUCAGAGUGGUAAAGUGGCUGUGGCUAGACUGCC is 0.04; for GGCAGAGCACAACACAGCGUAGCAAAGAGGCCGUGGCUAGACUGCC it is 0.08; for GGCAGAGCACAAAACAGCGUGGAAAAGUGGCUGUGACUAGGCUGCC it is 0.91. The figure for GGCAGAGCACAACUCAGCGUGGCAAAGUGGCUGUGGCUAAACUGCC is 0.12; for GGCAGAGCACAACACAACGUGGCAAAGUGGUGGUGGCUAGACUGCC it is 0.02.

In the case of GGCAGAGCAAAACAUAGCGUGGCAAAGUGGCUGUGGCUAGACUUCC, the self-cleavage was 0.04.

Take GGCAGAGCACAACACAGCGUGGAAAAGUGGCUGUGGAUAGACUGCC: the self-cleavage is 0.11. Take GGCAGAGCACAACUCAGCGUGGCAAAGUGGCUGUGGCUAGACAGCC: the self-cleavage turned out to be 0.21. As for GGCAGAGCACAAAACAGUGUGGCAAAAUGCCCGUGGCUAGACUGCC, the self-cleavage is 0.03. With GGCAGAGCAAAACACAGCGAGGCCAAGUGGCUGUAGCUAGACUGCC, the self-cleavage came out at 0.02.

For GGCAGAGCACAUCACAGAGUGGCAAAGUGGCUGAGGCUAGACUGCC, the self-cleavage worked out at 0.01. GGCAGAGCACAACACAGCGUGGUAAAGUGGCUGUGGUUAGACUGCG: the self-cleavage was determined as 0.09. For GGCAGAGCAGAACCCAUCGUGGCAAAGUGGCUGUGGCUAGCCUGCC, the self-cleavage was found to be 0.01. Regarding GGCAGAGCACAACACUGCGUGGCAAAGUGGCUGUGGCUAGAGUGCG, the self-cleavage amounted to 0.03. With GGCAGAGCACAACAGAGCGUUGCAAAGUGGCAGUGGCUAGACUGCC, the self-cleavage stood at 0.21. The figure for GGCAGAGCACAACACAGCGUGGCAAAGUAGAUGUGGCUAGACUGUC is 0.15; for GGCAGAGCACAACACAGCGUGGCAAAGUGCAUGUGGCUAAACUGCC it is 0.07. With GGCAGAGCACAACAUACCGUGGCAAAGUGGCUGUGGCUAGACUGCC, the self-cleavage worked out at 0.2. To GGCAGAGCACAACACAGCGUGACAAAGUGGCUGUGGCUACACUGCA belongs 0.07; to GGCAGAGCACAACACAGGUUGGCAAAGUGGCUGUGGCUAGACUGUC, 0.03. On to GGCAGAGCACAACACAGCGUUGCAAAGUGGGUGUGGCUAGACUGCC, for which the self-cleavage came out at 0.02.

Consider GGCAGAGCACAACACAGCGUGGCUAGGUGGCUGUGGCUAGACUGCC, for which the self-cleavage worked out at 0.17. Regarding GGCAGAGCACAAGACAGCGUGGCAAAGUGUCUGUGGCUAGACUGCC, the self-cleavage is 0.04. In the case of GGCAGAGCACAACAUAGUGUGGCAAAGUGGCUGUGGCUAGACGGCC, the self-cleavage was 0. The figure for GGCAGAGCACAACACAGCGUCGCAAAGUGGCCCUGGCUAGACUGCC is 0.05.

Regarding GGCAGAGCACAACACAGCGUGGCAAAAUGGCUGUGCCUAAACUGCC, the self-cleavage amounted to 0.2.

Regarding GGCAGAGCACAACACGGCGUGGUAAAUUGGCUGGGGCUAGACUGCC, the self-cleavage stood at 0.16. To GGCAGAGCAUAACACAACGUGCCCAAGUGGCUGUGGCUAGACUGCC belongs 0.02. The figure for GGCAGAGCACAACACAGCGUGGCUCAGUGGCUGUGGCUAGACUGUA is 0.03; for GGCAGAGCAUAACACAGCGUGGCAUAGUGGCUGUGGCUAGACUGCC it is 0.03; for GGCAGAGCACAACACAGCGUGGCAAACUGGUUGUGGCUAGACUGCC it is 0.01. The figure for GGCAGAGCACAACACAGCCUGGCAAAGUGGAUGUUGCUAUACUGCC is 0.04; for GGCAGAGCACAACACAGCGUGGCAAACUGGCUGUGGCUAGCCUGCC it is 0.05. GGCAGAGCACAACACAAAGUGGCAAAGUGGCUGUGGAUAGACUGCC: the self-cleavage turned out to be 0.01. As for GGCAGAGCACAACACACCGUGGCAAAGUGGGUGUGGCUAGACUGGC, the self-cleavage worked out at 0.09.

On to GGCAGAGCACAACACAGCGUGCCAAAGUGGCUGUGGAGAGACUGCC, for which the self-cleavage was 0. GGCAGAGCACAACAUAGCGUGGCAAAGUGGCUGAGGCUAGACUGCC: the self-cleavage stood at 0.19. The figure for GGCAGAGCACAACACAGCGUAGCAAAGUGGCUGAGGCUAGACUGCC is 0.04.

Consider GGCAGAGCACAACACAGCGUGGCAAAUGGGCUGUGGCUAGACUGCC, for which the self-cleavage stood at 0.08. For the variant GGCAGAGCACAACACGGCGUGGCAAAGUGGCUGUCGCUACACUGCC, the self-cleavage is 0.02. To GGCAGAGCACAACACAGUGUGGAAAAGUGGCUCUGUCUAGACUACC belongs 0; to GGCAGAGCAGAACACAGCGUGGCUAAGCGGCUGUGGCUAGACUGCC, 0.03.

On to GGCAGAGCACAACACAGCGUGCCAAAGUGGCGGUGGCUAGACUGCC, for which the self-cleavage was 0.15. Consider GGCAGAGCAAAACACAGUGUGGCAAAGUGGCAGUGGGUAGACUGCC, for which the self-cleavage was found to be 0.01. The figure for GGCAGAGCACAACACAGCGUGGCAAAGUGCCUGUCGUUAGACUGCC is 0.02; for GGCAGAGCACAACACAGCGUGGCAAAUUGGCCGUGGCUAGACUGCC it is 0.09; for GGCAGAGCAUAACACAGCGUGGCAAAGUGACUGUGGCUAGACUGCC it is 0.05. Regarding GGCAGAGCACAACACAGCGUGGCAAAGUGGCUGUGGCUAGAGUUCC, the self-cleavage turned out to be 0.04. With GGCAGAGCACAACACAGCGUAGCUAUGUGGCUGUGGAUAGACUGCC, the self-cleavage came out at 0.57. For GGCAGAGCACAACACAGCGUGGCAAAUUAGCUGUGGCUAGACUGCC, the self-cleavage worked out at 0.06. The figure for GGCAGAGCACAACACAGCGUGGCAAAGUGCCUGUGGCUAAACUGCC is 0.15; for GGCAGAGCACAACACAGCGUCGCAAAGUGGCUGCGGCUAGACUCCC it is 0.01.

For GGCAGAGCACAACAUAGCGUGGCAAAGUCGCUGUGGCUAGACUGCC, the self-cleavage was 0.12.

Consider GGCAGAGCAGAACACAGCGUGGCAAAGUGGCGGUGGCUAGACAGCU, for which the self-cleavage stood at 0.02. As to GGCAGAGCAAAACACAGAGUGGCAAAGUGGCUGUGGCUAUACUGCC, the self-cleavage amounted to 0.04.
